# Assay results: PubChem BioAssay AID1347073 (National Center for Advancing Translational Sciences (NCATS), 2019)
# The campaign covered roughly 45,000 compounds. About 200 (0.44%) were called active. Another 7% or so got no clear call; they are omitted. Calls come from the whole dose curve; as a rule, active = well fitted activation curve with a large enough effect; inconclusive = small, poorly fitted or top-dose-only effect; inactive = no such curve, though single readings can be large or run the other way. Some of the results follow.
# Test: qHTS of TDP-43 Inhibitors: NCGC Sytravon Library Screen; note: 0% is about no effect; nearly all actives have a fitted effect of over 55% in size
# Conditions: yeast TDP-43 toxicity rescue, BacTiter-Glo growth, 24 h; series mostly up to 46.1 µM; growth rescue (activation): at the top concentration
# How it was run: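 TDP-43-expressing yeast, pregrown in raffinose, seeded at OD600 0.02 in galactose medium with compound for 24 hr at 30 deg C. Growth read by BacTiter-Glo luminescence, so rescue of toxicity appears as activation.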
row,SMILES,growth rescue (activation)
1,CCN(CC)C(=O)Cn1cnc2sc(C(=O)N3CCN(c4ccc(F)cc4)CC3)c(C)c2c1=O,inactive: 8.19%
2,O=C(Nc1nc2ccc(S(=O)(=O)N3CCOCC3)cc2s1)c1cccs1,inactive: 8.49%
3,Cn1c(=O)c2c(nc(N/N=C/c3cccnc3)n2Cc2ccc(F)cc2)n(C)c1=O,inactive: 12.9%
4,CC(C)C(NC(=O)c1ccc(C(C)(C)C)cc1)C(=O)N1CCCC1 (stereo not drawn),inactive: 5.18%
5,CCOC(=O)c1sc(NC(=O)c2ccc(S(=O)(=O)N3CCCCC3)cc2)nc1-c1ccccc1,inactive: 27.3%
6,O=C(Nc1ccccc1Cl)Nc1ccccc1Cl,inactive: 32.3%
7,CCC(CC)N1CCN(Cc2nc3ccc([N+](=O)[O-])cc3c(=O)n2-c2ccccc2F)CC1,inactive: 10.7%
8,COC(=O)c1cn(Cc2ccccn2)c(=O)c2ccccc12,inactive: 7.67%
9,COc1cc(NC(=O)COC(=O)/C=C/c2ccc(Cl)cc2Cl)cc(OC)c1,inactive: 12.4%
10,O=C(NCc1ccncc1)C(=O)Nc1nccs1,inactive: 14.5%
11,CCN(CC(=O)Nc1ccc(S(=O)(=O)N2CCCC2)cc1)CC(=O)Nc1cccc(OC)c1,inactive: 2.59%
12,CC(=O)c1c(C)[nH]c(C(=O)CSc2nnc(-c3ccco3)o2)c1C,inactive: -5.75%
13,COc1cc(NS(C)(=O)=O)cc(OC)c1OC,inactive: 3.49%
14,CCc1ccc([C@@H]2C[C@H]3CN(Cc4ccccc4OC)C(=O)[C@]34CCCN24)cc1,inactive: 12.3%
15,Cc1c(C(=O)OCC(=O)N2CCN(c3ccccc3)CC2)oc2ccccc12,inactive: 22.1%
16,Cc1ccc(/C=N/Nc2nnc(Cl)c3ccccc23)cc1,inactive: -3.07%
17,CCOC(=O)C1CCCN(CCC(=O)Nc2ccc(C)c(C)c2)C1 (stereo not drawn),inactive: 11.9%
18,CC(OC(=O)CN1C(=O)C2C3C=CC(C4CC34)C2C1=O)C(=O)c1ccccc1 (stereo not drawn),inactive: -2.7%
19,O=S(=O)(c1ccccc1)c1nc(-c2ccc(Cl)cc2)oc1NCCCN1CCOCC1,inactive: 16.9%
20,CCOc1ccc(C(=O)c2cc([N+](=O)[O-])ccc2N2CCOCC2)cc1,inactive: 4.01%
21,Cc1ccccc1NC(=S)NCCc1c[nH]c2ccccc12,inactive: 10.7%
22,CC(C(=O)c1c[nH]c(C(=O)N=CN(C)C)c1)c1ncc(C(F)(F)F)cc1Cl (stereo not drawn),inactive: 12.7%
23,Cc1cc(S(=O)(=O)N2CCN(c3ccc(F)cc3)CC2)ccc1-n1cnnn1,inactive: 7.11%
24,Cc1ccc(NC(=O)N2CCCC2C(=O)NCc2ccc3c(c2)OCO3)cc1 (stereo not drawn),inactive: 7.53%
25,COc1ccc(C(=O)Nc2cc(C(=O)O)cc(C(=O)O)c2)cc1Cl,inactive: -5.95%
26,Cc1nc2sc(-c3ccccc3)cc2c(=O)n1/N=C/N(C)C,inactive: -4.41%
27,CN(Cc1ccccc1)C(=O)Cn1nnc(-c2ccccc2)c1COc1ccccc1,inactive: 20.5%
28,CCOC(=O)c1c(C)n(C)c2cc(-c3ccc(F)cc3)c(O)cc12,inactive: 8.17%
